About 2,600 (0.72%) of roughly 360,000 compounds were called active. Inconclusive results, whose numbers are uncertain, are shown with a selection of clear calls. Calls come from the whole dose curve; as a rule, active = well fitted inhibition curve with a large enough effect; inconclusive = small, poorly fitted or top-dose-only effect; inactive = no such curve, though single readings can be large or run the other way. A potency beside an inconclusive call is a rough fit, not a confirmed value.
Assay: Primary qHTS for Inhibitors of ATXN expression; note: nearly all actives have a fitted effect of over 55% in size
Settings: HEK-293 ATXN2-luciferase reporter, luminescence, 24 h; activity change, negative = inhibition: at 57 µM (top of the series)
How it was run: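 ATXN2-luciferase reporter cells (luciferase flanked by upstream and downstream ATXN2 gene portions) were treated 24 h at 37 °C with compounds at up to 57 uM. SteadyGlo luminescence gave expression; GF-AFC fluorescence gave viability.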
% is set by controls: 0 for no effect and ±100 for the full control effect; potency is the fitted concentration of half-maximal effect; tags give direction and shape of the fitted curve.

SMILES	activity change, negative = inhibition	Potency
Cc1[nH]c(=S)c(C#N)c(C)c1CC(=O)c1ccc(Br)cc1	inconclusive: -43% [inhibitor]	–
CN(C)c1ccc(P(=O)(CC(=O)N/N=C/c2ccc(C#N)cc2)OCCCl)cc1 (stereo not given)	inactive: -25.9%	–
CCC(C)c1c(O)nc(SCC(=O)N2CCCCCC2)[nH]c1=O (stereo not given)	inactive: 19%	–
Cc1ccc(NC(=O)C2CC(=O)N(c3ccc4c(c3)OCCO4)C2)cc1S(=O)(=O)N1CCCCCC1 (stereo not given)	–	inconclusive: 22.4 µM [inhibitor, partial curve, poor fit]
CC1CCc2c(sc(NC(=O)CSc3nc(N)cc(=O)[nH]3)c2C(N)=O)C1 (stereo not given)	–	inconclusive: 17.8 µM [inhibitor, partial curve, poor fit]
Cc1cc(-c2csc3nc[nH]c(=S)c23)cc(C)c1C	–	inconclusive: 26.7 µM [inhibitor, single point]
CC(=O)c1ccc(NC(=S)Nc2cccc3ccccc23)cc1	inactive: 13.7%	–
COc1ccc(CN2CCc3nc(N4CCN(c5ccc(F)cc5)CC4)ncc3C2)c(OC)c1OC	–	inconclusive: 0.794 µM [inhibitor, partial curve, poor fit]
CCCCN(CCCC)C(=S)N/N=C/c1c(C)[nH]n(-c2ccccc2)c1=O	–	inconclusive: 15.8 µM [inhibitor, partial curve]
C=CC(=O)Nc1cccc(Oc2nc(Nc3ccc(N4CCN(C)CC4)cc3OC)ncc2Cl)c1	–	inconclusive: 43.2 µM [inhibitor, single point]
CC(C)n1cc(C(=O)NC2CC(C)(C)Cc3c2cnn3-c2ccccc2)cn1 (stereo not given)	inactive: -0.439%	–
COC(=O)CCC(NS(=O)(=O)OCC(Cl)(Cl)Cl)c1ccccc1 (stereo not given)	inactive: -10.9%	–
COc1cccc(-c2nn(C)c3sc(C(=O)NCCCN(C)Cc4ccccc4)cc23)c1	–	active: 28.2 µM
CC(C)(C)CC(=O)Nc1nc(C(N)Cc2ccc(C(F)(F)F)cc2)cs1 (stereo not given)	–	inconclusive: 39.8 µM [inhibitor, single point]
O=C(/C=C/c1ccc(O)c(O)c1)OCCc1ccccc1	inactive: -8.37%	–
CC(C)c1ccc(C(=O)CC2(O)C(=O)N(CCc3ccccc3)c3ccc(Cl)cc32)cc1 (stereo not given)	–	inconclusive: 39.8 µM [inhibitor, single point]
Cc1cc2ccccn2c1C(=O)c1ccc([N+](=O)[O-])o1	–	inconclusive: 15 µM [inhibitor, partial curve, poor fit]
CCn1ccc(C(=O)Nc2c(C)nn(Cc3c(F)c(F)c(F)c(F)c3F)c2C)n1	inactive: -4.17%	–
O=C(Nc1cn[nH]c1-c1nc2ccc(CN3CCOCC3)cc2[nH]1)NC1CC1	–	active: 5.44 µM
Cc1cc(C(=O)CCl)c(C)n1-c1cccc([N+](=O)[O-])c1	–	inconclusive: 29.9 µM [inhibitor, single point]
Cn1c2ccccc2c(=O)c2cc(C#Cc3ccc(N)cc3)ccc21	inactive: 5.9%	–
COCCNc1nc(Nc2ccc(Cl)cc2F)c2sccc2n1	–	inconclusive: 31.6 µM [inhibitor, single point]
CC(=O)Nc1ccc(S(=O)(=O)N2CCN(c3ccc(C)c(C)c3)CC2)cc1	inactive: 0.302%	–
CC(=O)N1CCCc2cc(S(=O)(=O)CCC(=O)Nc3cccc(C)c3C)ccc21	inactive: 1.82%	–

SMILES	activity change, negative = inhibition	Potency
O=c1[nH]c(C2CCN(S(=O)(=O)Cc3ccccc3)CC2)nc2c1nnn2Cc1cccc(Cl)c1	inactive: -15.7%	–
COc1cccc(N2CCN(C(=O)c3ccc4c(Cl)c5c(nc4c3)CCCC5)CC2)c1	inactive: 10.5%	–
CCCc1ccc(C(=O)NNc2ccc(F)cc2)cc1	inactive: -20.9%	–
CCCN1C2CCCC1CC(NC(=O)c1ccc(OC)cc1)C2 (stereo not given)	inactive: -55%	–
CCOC(=O)[C@]12CCCC=C1N(Cc1cccc3ccccc13)C(=O)[C@H](CC(=O)NCc1ccc(C)o1)C2	–	inconclusive: 39.8 µM [inhibitor, single point]
Cc1cc(C(=O)N/N=C/c2ccc(N(C)C)cc2)c2ccccc2n1	–	inconclusive: 1.19 µM [inhibitor, full curve]
CC(C)c1ccc(CNc2nc(NCC3CC3)nc3ccsc23)cc1	–	inconclusive: 31.6 µM [inhibitor, single point]
CCOc1ccc(NC(=O)Nc2cccc(C(=O)O)c2)cc1	–	active: 1 µM
Cc1cc(C)c(CN2CCN(CCCn3cnc(C(=O)Nc4ccc(C)c(C)c4)n3)CC2)c(C)c1	–	inconclusive: 39.8 µM [inhibitor, single point]
CSc1ncc2c(=O)[nH]c(-c3ccccc3)nc2n1	–	inconclusive: 10 µM [inhibitor, partial curve, poor fit]
O=S(=O)(Nc1ccc(-n2cccc2)cc1)c1ccccc1	–	inconclusive: 28.2 µM [inhibitor, partial curve, poor fit]
COc1cccc(CNc2nc3cc(-c4cnn(Cc5ccccc5)c4)sc3c(=O)n2C)c1	inactive: -25.9%	–
CN1CCC(N(C)S(=O)(=O)c2ccc(NC(=O)COc3cccc(C(F)(F)F)c3)cc2)CC1	inactive: -7.31%	–
COc1cccc(-n2nnc3c(=O)n(CC(=O)N4CCC(C)CC4)cnc32)c1	inactive: -12.3%	–
CCOc1ccc2[nH]c3c(NCCC(C)C)ncnc3c2c1	–	inconclusive: 35.5 µM [inhibitor, single point]
O=C1N(c2ccccc2)C[C@@H]2C[C@@H](c3cc4ccccc4o3)N3CCC[C@@]123	–	active: 0.299 µM
COC(=O)c1cc(Cl)c(NC(=O)/C=C/c2ccc(Cl)cc2)cc1OC	–	inconclusive: 10 µM [inhibitor, partial curve]
Cc1ccc(C)c(C(C)NC(=O)c2ccc(Br)o2)c1 (stereo not given)	inactive: -9.14%	–
CCc1cccc(CC)c1NC(=O)/C(C#N)=C/c1ccccc1C(F)(F)F	–	inconclusive: 31.6 µM [inhibitor, single point]
CCCC(=O)N1CCN(c2ccc(NC(=O)c3ccc([N+](=O)[O-])o3)cc2Cl)CC1	–	inconclusive: 10.6 µM [inhibitor, partial curve, poor fit]
CC(C)c1ccc(NC(=O)Nc2nc(C(N)c3ccccc3Cl)cs2)cc1 (stereo not given)	–	inconclusive: 39.8 µM [inhibitor, single point]
Cc1cc(S(=O)(=O)NCCc2csc(-c3cccc(F)c3)n2)ccc1F	–	inconclusive: 0.631 µM [inhibitor, full curve, poor fit]
C=CC[C@@H](Cc1ccc(F)cc1)C(=O)OC[C@H]1CCCN1C(=O)[C@@H](CC=C)CC(=O)N[C@@H](CO)Cc1ccccc1	–	inconclusive: 39.8 µM [inhibitor, single point]
CCOC(=O)c1c(C)n(-c2ccc(C)cc2)c2ccc(O)c(CN(C)C)c12	–	inconclusive: 15.8 µM [inhibitor, partial curve]

SMILES	activity change, negative = inhibition	Potency
CCOC(=O)Cn1c(S(=O)(=O)Cc2ccccc2Cl)nc(-c2ccccc2)c1-c1ccccc1	inactive: -6.18%	–
CC(=O)NC(c1ccc(C)cc1)c1cc(Cl)c2cccnc2c1O (stereo not given)	–	active: 11.2 µM
Cc1ccc(C)c(NS(=O)(=O)c2cc(C(=O)NCCC3=CCCCC3)ccc2C)c1	–	inconclusive: 35.5 µM [inhibitor, single point]
Cc1ccc(C=NNC(=O)c2cc(-c3cccnc3)nc3ccccc23)o1	inactive: -13.6%	–
CCCCCCc1cc2cc(-c3nnc(-c4ccccc4OC)o3)c(=O)oc2cc1O	–	inconclusive: 39.8 µM [inhibitor, single point]
CCNc1c([N+](=O)[O-])c(=O)oc2ccccc12	inactive: -0.146%	–
Clc1ccc(CN2CCN(c3ncnc4scc(-c5cccs5)c34)CC2)cc1	–	inconclusive: 7.08 µM [inhibitor, partial curve, poor fit]
CN(C(=O)CSc1nc2ccc(NC(=O)c3cccs3)cc2s1)c1ccccc1	–	inconclusive: 35.5 µM [inhibitor, single point]
CC(C)(C)C(=O)N1CCCC1C(=O)O (stereo not given)	–	inconclusive: 39.8 µM [inhibitor, single point]
O=C1CN(C(=O)c2c(F)cccc2Cl)C(c2ccc(F)cc2)c2cc(Br)ccc2N1 (stereo not given)	–	inconclusive: 20 µM [inhibitor, single point]
C/C(=N\NC(=O)C(C)n1nc(C)c([N+](=O)[O-])c1C)c1ccccc1O (stereo not given)	–	active: 15.8 µM
Cc1ccc(C(=O)Nc2cccc(C(F)(F)F)c2)cc1NC(=O)c1csc(-c2ccncc2)n1	–	inconclusive: 7.94 µM [inhibitor, partial curve, poor fit]
CC(C)CNC(=S)NC(=O)c1csc([N+](=O)[O-])c1	inactive: -6.02%	–
Cn1c(SCC(=O)Nc2ccccc2)nc2c([nH]c3ccccc32)c1=O	–	inconclusive: 25.1 µM [inhibitor, single point]
COc1ccccc1-c1noc2c1C(=O)N(Cc1cn(-c3ccc(Cl)cc3)nn1)CC2	–	inconclusive: 20 µM [inhibitor, partial curve]
Cc1ccc(-c2noc(N=O)c2NO)cc1	–	inconclusive: 14.1 µM [inhibitor, partial curve, poor fit]
O=[N+]([O-])c1ccc2c(c1)-c1ccccc1C2=NO	inactive: 7.55%	–
COc1ccc(C)cc1NC(=O)C(Sc1nnc(Nc2cc(C)ccc2OC)s1)c1ccccc1 (stereo not given)	inactive: -1.61%	–
Cc1ccc(C)c(N2CCN(c3ncccc3[N+](=O)[O-])CC2)c1	–	inconclusive: 39.8 µM [inhibitor, single point]
c1ccc(CNc2nc(NCc3ccccc3)c3ccccc3n2)cc1	–	inconclusive: 30.6 µM [inhibitor, single point]
CCOC(=O)c1c(N)sc(C(=O)Nc2ccc3c(c2)OCO3)c1C	–	inconclusive: 14.1 µM [inhibitor, single point]
CCOC(=O)c1c(NC(=O)Nc2ccc(Cl)cc2)sc(C)c1C	–	inconclusive: 28.2 µM [inhibitor, single point]
